The supplement of paper PMC10338343
± gives the standard deviation. This is a selection; strong and weak results do not stand in their true shares.

system: MIWI (PIWIL1) piRISC loaded with piRNA #1 (30 nt); assay: pre-steady-state target cleavage rate (min^-1); MIWI and MILI are mouse PIWI proteins and EfPiwi is from a freshwater sponge; tags in brackets are library labels; higher = faster piRNA-guided slicing of the target; details: guide: piRNA #1 5'p-UGAGGUAGUAGGUUGUAUAGUAUCCAGAGG; auxiliary factor: 500 nM mouse GTSF1
Procedure, shortened: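 In this Cleave-'n-Seq assay, uncleaved targets were sequenced and normalised to depth and to weakly complementary targets. They came from a transcribed, DNA-blocked target RNA library […] mixed with 1 nM active affinity-purified piRISC carrying one synthetic guide, with or without 500 nM GTSF1 partner protein, in HEPES–potassium acetate buffer at 33 °C for 0–8 or 0–960 min. After three trials were pooled and k3 was capped at 0.0001 min^-1, the pre-steady-state cleavage rate was obtained from a burst-and-steady-state fit.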
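Note: 1 nM active piRISC with 0.1 nM target library at 33 °C single turnover.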

First: GGAGUGGAUACUAUACAACCUACUACGACA
Second: GGAGACCUAACUAUACAACCUUCUUCCUCA
The “pre-steady-state target cleavage rate” value of the first is higher: 0.113 ± 0.017 for the first, 0.0214 ± 0.007 for the second.

Compared with GGUCUGGAUACUAGUACAACCUACUACCUCA, GGAGACCUUACUAAACAACGUACUACCUCA is lower in “pre-steady-state target cleavage rate” value: 1.61 ± 0.12 for the first, 0.0805 ± 0.013 for the second.

Going from GGAGACGAUACUAUACAACCUACUACCUUCA to CCUCUGGAUACUAUAUCAACCUACUACCUCA, the “pre-steady-state target cleavage rate” value falls from 1.49 ± 0.094 to 0.922 ± 0.1.

Compared with GGAGUGGAUACUAUACAACCUUCUUCCUCA, GGAGUGGAUCACUAUACAACCUACUACCUCA is higher in “pre-steady-state target cleavage rate” value: 0.0055 ± 0.002 for the first, 1.32 ± 0.15 for the second.

Compared with CCUCUGGAUACUAUACAAGCUACAACCUCA, GGAGUGGAUACUAUACAACCUACUACGUGA is lower in “pre-steady-state target cleavage rate” value: 1.16 ± 0.067 for the first, 0.0221 ± 0.0059 for the second.

First: GGAGACGAUACAAUAGAACCUACUACCUCA
Second: GGAGAGGAUACUAUAACAACCUACUACCUCA
The “pre-steady-state target cleavage rate” value of the first is lower: 0.99 ± 0.062 for the first, 1.3 ± 0.087 for the second.

First: GGAGACGAUACUAUUCAACGUACUACCUCA
Second: GGAGACCAUACUAUACAACCUAGUAGCUCA
The “pre-steady-state target cleavage rate” value of the first is higher: 0.581 ± 0.033 for the first, 0.00871 ± 0.0042 for the second.

GGAGAGGAUAGUAUACAACGUACUACCUCA and GGAGACCUAACUAUACUACCUACUUCCUCA are within error of each other in “pre-steady-state target cleavage rate” value: 0.00683 ± 0.0029 for the first, 0.00433 ± 0.0034 for the second.

Compared with GGACUGGUUACUAAACAACCUACUACCUCA, GGAGACCUAUCUAUACAAGCUUCUACCUCA is lower in “pre-steady-state target cleavage rate” value: 1.41 ± 0.14 for the first, 0.0248 ± 0.0044 for the second.

Going from GGUCUCGAUUCUAUACAACCUACUACCUCA to GGUCUGGAUACUAUAGAACGUACUACCUCA, the “pre-steady-state target cleavage rate” value falls from 1.74 ± 0.1 to 0.0939 ± 0.018.

Going from GGAGACGUUACUAUACAACCUACUACCUCA to GGAGACCUAUGAUAUGUUCCUACUACCAGA, the “pre-steady-state target cleavage rate” value falls from 1.62 ± 0.096 to under 0.0001.

Compared with GGACUGGAUACUAUACAAUCUACUACCUCA, GGAGACGAUACUAUAGUACCUACUACCUCA is higher in “pre-steady-state target cleavage rate” value: 0.423 ± 0.023 for the first, 1.28 ± 0.097 for the second.

Compared with GCUCUGCAUACUAUUCAACCUACUACCUCA, GGAGACGAUACUAUACAACCUACUUCCACA is lower in “pre-steady-state target cleavage rate” value: 1.93 ± 0.12 for the first, 0.237 ± 0.052 for the second.

First: CCUCAGGAUAGUAUACAACCUACUACCUCA
Second: GGAGACCUAUGUAUACAUCCUAGUACCUCA
The “pre-steady-state target cleavage rate” value of the first is higher: 0.142 ± 0.02 for the first, 0.00528 ± 0.0014 for the second.

First: GGAGACCUAUCUAGACAACCUACUACCUCA
Second: GGAGACCUUACGAUACAACCUACUACCUCA
The “pre-steady-state target cleavage rate” value of the first is lower: 0.332 ± 0.037 for the first, 1.03 ± 0.1 for the second.

Compared with GGAGACCUUACUAUACAACCUAAUACCUCA, GGAGAGGAACUAUACAACCUACUACCUCA is higher in “pre-steady-state target cleavage rate” value: 0.814 ± 0.073 for the first, 1.46 ± 0.08 for the second.

Compared with GGAGACCUAAGUAUACAACCUACUUCCUCA, GGAGUGGAUACUAUACUACCUACUACCUCA is higher in “pre-steady-state target cleavage rate” value: 0.00667 ± 0.0026 for the first, 1.25 ± 0.077 for the second.

Compared with CCUCUCGAUACUAUACAACCUACUUCCUCA, GGAGUGGAUACUAUACAACCUAAUACCUCA is lower in “pre-steady-state target cleavage rate” value: 1 ± 0.057 for the first, 0.541 ± 0.048 for the second.

Compared with GGAGACCUAAGUAUACAACGUACUACCUCA, GGAGACCUAUGAUAUCAACCUACUUCCACA is lower in “pre-steady-state target cleavage rate” value: 0.00765 ± 0.0024 for the first, under 0.0001 for the second.

Compared with GGAGACCUAUCUAUACAACCUACUACUCA, GCUCUGCAAACUAUACAACCUACUACCUCA is higher in “pre-steady-state target cleavage rate” value: 0.199 ± 0.023 for the first, 1.57 ± 0.097 for the second.
